According to paper PMC12136788:
The other results are listed elsewhere or left out.

B1: ENSG00000198589:be:win_2901|CDS|ENSG00000198589|bound_else_gene|NA|bound_elsewhere_windowed (ssRNA)
RNA: GGGAGUUCUACAGUCCGACGAUCUUCAGUAGGAUCCCAGCAACCAGAUACGAAGGAUUCUCCUGUCUGUCCUCAUUUCACCACAAAUGGUAAUGAAAAUUCAAGUAUAGAGAAGACAAGUUCACUAGAAUCUGCAUCUAAUAUCAACAGAGGAUUGAGCAUCA
B2: chr22:36281679:36281692:-|3pUTR|ENSG00000100345|msi1_unk|FALSE|overlapping (ssRNA)
RNA: GGGAGUUCUACAGUCCGACGAUCUCUUGUGUCUACUCUAGGACUGGGCCCGAGGGUGGUUUACCUGCACCGUUGACUCAGUAUAGUUUAAAAAUCUGCCACCUGCACAGGUAUUUUUGAAAGCAAAAUAAGGUUUUCUUUUUUCAACAGAGGAUUGAGCAUCA
B3: chr12:24812190:24812291:-|3pUTR|ENSG00000060982|msi1|FALSE|unique (ssRNA)
RNA: GGGAGUUCUACAGUCCGACGAUCUUUACUAUCUCCUAUCCUGAUAGGUGGAAGGUUUACUGAAUUGGAAAUUGGUUGACUAUUAGUUUUUAACUAAAAUGUGCAAUAACACAUUGCAGUUUCCUCAAACUAGUUUCCUAUGAUCAACAGAGGAUUGAGCAUCA
B4: ENSG00000107863:be:win_4951|CDS|ENSG00000107863|bound_else_gene|NA|bound_elsewhere_windowed (ssRNA)
RNA: GGGAGUUCUACAGUCCGACGAUCGAGAGGCUUUUCCGAGGAAAACUGCAAGAAGUGACUAAGAGCAGCCGGAGAAAUUCUGAAGGAAGUGAAUUAAGUUGCACCGAGGGAAGUUUAACAUCAAGUUUAGAUAGCCGGAGACAGCAACAGAGGAUUGAGCAUCA
B5: chr8:120459219:120459329:+|CDS|ENSG00000172167|unk|total|mutant (ssRNA)
RNA: GGGAGUUCUACAGUCCGACGAUCUUUGGAUUUGAAAUCCGUUUUCCUGAAUUUUGUUUAAAGGGAGUCACACUUAAGAAUUUCCGUACUUCUAAUUUAAAUACUGACUUCCUUGCCAAAAAGAUCAUACCAUCAAAGGAUAAGCAACAGAGGAUUGAGCAUCA
B6: ENSG00000198589:be:win_5501|CDS|ENSG00000198589|bound_else_gene|NA|bound_elsewhere_windowed (ssRNA)
RNA: GGGAGUUCUACAGUCCGACGAUCUGCUUAUAGAAGGAACAAGUCUGGUUUGCAUGAAGUCGAGUAGUUCAGUUGUGGAAUUGGUUAUGCUACUGUGUUCUCAGGAGUGGCAAAAUUCUAUUCAGAAGAAUGCAGGCCUUGCUUCAACAGAGGAUUGAGCAUCA
B7: chr12:48782793:48782894:-|CDS|ENSG00000174233|msi1|total|mutant (ssRNA)
RNA: GGGAGUUCUACAGUCCGACGAUCGCACUGUUGGCCUGUGCCGCCGCCCUGUUCGUGGGGCUCAUGGUGGUGUGUAACCGGCACCGCUUCCGCCAGGACUCCAUGUGGGUGGUGAGCUACGUGGUGCUGGGCAUCCUGGCGGCACAACAGAGGAUUGAGCAUCA
B8: chr12:27755550:27755651:+|3pUTR|ENSG00000061794|msi1|FALSE|unique (ssRNA)
RNA: GGGAGUUCUACAGUCCGACGAUCAUACUAAUGCUUAAUGGCAAUGAUUACUCCAGAGUUUUUUAAUUUUUACACUGGGGCAAUAGACUAGGAGGUCUCUGAUUUCUUCUUGGUCUAAAGUGUUUUGAUUUUAUUUCUACAUAACAACAGAGGAUUGAGCAUCA
B9: chr4:121668310:121668420:-|3pUTR|ENSG00000164111|msi1_unk|total|mutant (ssRNA)
RNA: GGGAGUUCUACAGUCCGACGAUCCCUUCAGCACCUUCCGCUGCAUUUGUAUGCCAGUGCUUAACACAUUGCCUUAUUCAUACCCGCAUGCUCAUGACCAACACAUACACGUCACCGAAGAAAACCGUGGUGCUUCUUUCUGAUCAACAGAGGAUUGAGCAUCA
B10: chr16:31131432:31132008:-|three_prime_utr|ENSG00000052344|control|control|control (ssRNA)
RNA: GGGAGUUCUACAGUCCGACGAUCCCAUUCUUCUGGGUGUGCUUUUUGGGACCAUCACUGAGAGUCAGGAGUUUUACUGCCUGUAGCAAUGGCCAGAGCCUCUGGCCCCUCACCCACCAUGGACCAGCCCAUUGGCCGAGCUCCCAACAGAGGAUUGAGCAUCA
B11: chr10:121967677:121967791:-|CDS|ENSG00000107672|unk|total|mutant (ssRNA)
RNA: GGGAGUUCUACAGUCCGACGAUCAAAUCCGCCCGAAGCUGAAGAACUCAUCCGUGAUGAAGACCGUCCUGAUUUUGAAUUCACCGUCUAUGACUCCUGGAAGAUAACAGGCAGAACAGCAGAAAACACCUUUAAUAAAACCCACAACAGAGGAUUGAGCAUCA
B12: chr8:88032264:88032379:-|3pUTR|ENSG00000156103|unk|total|mutant (ssRNA)
RNA: GGGAGUUCUACAGUCCGACGAUCACUCCUUAUAAUGUUGCGUCAUUAAAGGUCAAGGGGUCAUGCUAUUAAUCUCAUUGCUACCGACCAUUAACAUGACUGAACUUUUCCACAAAGUACUUAUGUUUACAAUGCUAUAACCCUCAACAGAGGAUUGAGCAUCA
B13: chr11:134151495:134151596:+|3pUTR|ENSG00000166086|unk|total|mutant (ssRNA)
RNA: GGGAGUUCUACAGUCCGACGAUCCCGUGCCAUGGGAACCAGGUCUGAAAAAGCCGAGAGAAGUGAAAGCCGAGUCUGGGAAGCCGCUGCCUAUAACUGAGACCCGACGGAAAAGGAAUACUCGUGUAUUUUAAGAUAUGAAUGCAACAGAGGAUUGAGCAUCA
B14: chr1:232398519:232398625:-|3pUTR|ENSG00000116991|unk|total|mutant (ssRNA)
RNA: GGGAGUUCUACAGUCCGACGAUCACAGCCGUUUUAUUUCCACAGCCACAUUACCACCGCAAUAAGAAAGGAGGCACCGUACACCGUUGGAAAAGCUUUGUGGGGGGAUUAAAAAAAAAAAAAAGCACUGUUGUGUUUAACACUCAACAGAGGAUUGAGCAUCA
B15: chr7:127373434:127373542:-|CDS|ENSG00000048405|unk|total|mutant (ssRNA)
RNA: GGGAGUUCUACAGUCCGACGAUCAAAACACCGUGAUUCAAAACAUGAUGGCACUUCUAACUCUCCCCGUAAAAAGUAUGAAGCCGCUGACGUCGGUAUUGAAGUAAAAGUCACAAAAAACUUUUCUCUUCACAGAUGCAAUAACAACAGAGGAUUGAGCAUCA
B16: chr1:114568131:114568247:-|CDS|ENSG00000116752|unk|FALSE|bound_elsewhere (ssRNA)
RNA: GGGAGUUCUACAGUCCGACGAUCUUCUAGUUGGGUAUCCCUGGUCAGUAAGAAUUAUGAGAUUGAACGGACUAUUGUUCAGCUAGAAAAUGAAAUCUAUCAAAUUAAGCAGCAACAUGGAGAGGCAAACAAAGAAAACAUCCGCAACAGAGGAUUGAGCAUCA
B17: chr12:39553730:39553837:-|3pUTR|ENSG00000173208|unk|total|mutant (ssRNA)
RNA: GGGAGUUCUACAGUCCGACGAUCGAAGUAUGUUAAGCUAAGCACAGAGAAAAAAAGGCAGCAAGACAUGUUUUAUAAGAUUUCCGCAUUAAGGAAGUAUAUGAUCUGACUUUUCAGAAGAAAAUAAACAAAUGCAUUAUGUAACAACAGAGGAUUGAGCAUCA
B18: chr22:44243664:44249684:-|three_prime_utr|ENSG00000138944|control|control|control (ssRNA)
RNA: GGGAGUUCUACAGUCCGACGAUCGCACCCGGUGCAGCCUCCGAGAAGAACAACUUCUACAGAGAUGCCAGGGACAGCCGAGGUAGCGGCGGUGGCACAGGAGGAAAUGCUGCCUGUGCCCAAAGCCCCCUUCCGCGGACUUCUCAACAGAGGAUUGAGCAUCA
B19: ENSG00000198589:be:win_7951|CDS|ENSG00000198589|bound_else_gene|NA|bound_elsewhere_windowed (ssRNA)
RNA: GGGAGUUCUACAGUCCGACGAUCCGUGAUGCAACUCUUUUGCUGUGGUAUUGGAAUGGAAAAUGCAGUGGGAUUGGAGAUAACCCAGGCAGUGAGACUGCUGCUCCUCGGGCCAUUUUGACCGGCCAUGACUAUGAGGUCACACAACAGAGGAUUGAGCAUCA
B20: chr8:23572142:23572248:+|3pUTR|ENSG00000147454|unk|FALSE|unique (ssRNA)
RNA: GGGAGUUCUACAGUCCGACGAUCCCUCCCUGGGCAGAAUGUAGCUUUUCUGCUUCACUGUGGCAGCCUCCUCCCUGGAUCCUUAGAUCCCAGAGGAGGGAAGAAAAUUUGCAGUGACUGAAAACAGUAAAAAAAAAAAAAAAACAACAGAGGAUUGAGCAUCA
B21: chr6:149811313:149811414:+|3pUTR|ENSG00000120265|msi1|FALSE|unique (ssRNA)
RNA: GGGAGUUCUACAGUCCGACGAUCUGUUUCUAAUUUGCUGCUGAUAAUGUAUAUGAACUUAACAUGCUGUGUAAGCUGUGUCCUAGUUCUUGAACAGUUUAUGCAGUGCUGCUUUGCCAAAUAAAGUUAAAAGUAAAAGAGGCACAACAGAGGAUUGAGCAUCA
B22: ENSG00000165280:stop:overlap|stop_codon|ENSG00000165280|stop_codon|NA|stop_codon (ssRNA)
RNA: GGGAGUUCUACAGUCCGACGAUCCCGAGGUCAUGAACUCUCUAGCAGUUACUAUGGAUGACUUCCGGUUUUCCCUCCUUUUCUAGUGGGCCUUGAGCCAGAGUAACCCAUCAGCACUGCGGGAAACCGUGGUAGAGGUGCCACCAACAGAGGAUUGAGCAUCA

target: T1, UNK ZnF1-6 (called full-length) (human, UniProt Q9C0B0 30-357); assay: nsRBNS (natural sequence RNA bind-n-seq); RBNS binding buffer (assumed for nsRBNS): 25 mM Tris pH 7.5, 150 mM KCl, 3 mM MgCl2, 0.01% Triton X-100, 500 ug/ml BSA, 20 U/ml SUPERase-In, 4 C; UNK is unkempt and MSI1 is Musashi-1; names of the RNAs are library labels; protein concentration not given here; high values mean tight binding
T1 sequence: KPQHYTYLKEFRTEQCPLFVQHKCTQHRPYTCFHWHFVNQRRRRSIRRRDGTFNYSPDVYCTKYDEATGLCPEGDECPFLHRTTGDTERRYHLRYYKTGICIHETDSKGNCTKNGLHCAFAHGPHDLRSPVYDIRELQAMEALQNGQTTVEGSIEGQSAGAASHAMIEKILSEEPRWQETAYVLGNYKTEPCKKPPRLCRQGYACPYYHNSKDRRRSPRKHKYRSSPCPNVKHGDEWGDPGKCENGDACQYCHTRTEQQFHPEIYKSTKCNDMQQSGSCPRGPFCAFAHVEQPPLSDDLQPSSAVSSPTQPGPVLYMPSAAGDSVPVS

Binder	binding signal [enrichment R]
B1	0.268
B2	0.854
B3	0.421
B4	0.786
B5	0.659
B6	0.512
B7	0.707
B8	0.565
B9	0.543
B10	0.803
B11	0.616
B12	0.466
B13	0.643
B14	0.635
B15	0.242
B16	0.794
B17	0.622
B18	0.449
B19	0.67
B20	0.635
B21	0.451
B22	0.788
